Data: PubChem BioAssay AID686971 (National Center for Advancing Translational Sciences (NCATS), 2013)
About 7,500 (2.1%) of roughly 360,000 compounds were called active. Inconclusive results, whose numbers are uncertain, are shown with a selection of clear calls. Calls follow the shape of the dose curve; as a rule, active = well fitted cell-killing curve with a large enough effect; inconclusive = small, poorly fitted or top-dose-only effect, or effect the other way, or another doubt; inactive = no such curve, though single readings can be large or run the other way. Potencies of inconclusive entries are left out as doubtful fits.

Assay: qHTS for induction of synthetic lethality in tumor cells producing 2HG: qHTS for the HT-1080-IDH1KD cell line;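 as to activity, negative = toxicity: 0% = DMSO wells and -100% = cell-free medium wells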
Details: HT-1080 IDH1 knockdown viability, ATP luminescence, 48 h; activity, negative = toxicity: at 46.1 µM (top of the series) unless noted
Procedure, shortened: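 Knockdown cells (IDH1KD HT-1080) received compounds 2 h after plating at 750 cells/well and were kept 48 h at 37 °C in 5% FBS RPMI. A CellTiter-Glo luminescence read gave % activity for curve fitting.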
Potency is read from the fitted curve at half-maximal effect; tags tell the direction and shape of the fitted curve.

Structure (SMILES) | Potency | activity, negative = toxicity
CCc1n[nH]c(=S)n1/N=C/c1ccc2c(c1)OCO2 | inconclusive [cytotoxic, single point] | 
CCOC(=O)C1CCCN(Cc2ccc(OCC)cc2)C1 (stereo not given) |  | inactive: -11.2%
Cc1cccc(NC(=O)CSc2nnc(C3CC3)n2CC2CCCO2)c1 (stereo not given) |  | inactive: -5.6%
CCc1nnc(NS(=O)(=O)c2ccc(N/C=C\C(=O)c3ccc(C)cc3)cc2)s1 |  | inactive: -0.737%
CCOc1ccc(Br)cc1CNc1ccc2c(c1)OCCO2 |  | inactive: -9.49%
O=C(Nc1ccc(C(F)(F)F)cc1)c1cc(S(=O)(=O)NCC2COc3ccccc3O2)ccc1F (stereo not given) | inconclusive [cytotoxic, single point] | 
CC(=O)N1CCc2cc(S(=O)(=O)NCCC(=O)NCCc3ccccc3)ccc21 |  | inactive: -1.35%
CCOC(=O)/C=c1\s/c(=C\c2ccc(C(=O)OC)cc2)c(=O)n1CC(=O)Nc1ccccc1 |  | inactive: 14.5%
O=C(CN1CCN(c2ncc(C(F)(F)F)cc2Cl)CC1)NCCNc1ncc(C(F)(F)F)cc1Cl | active: 18.4 µM | 
CN1CCN(CCCN2c3ccccc3Sc3ccc(C(F)(F)F)cc32)CC1 | inconclusive [cytotoxic, single point] | 
CCCOC(=O)c1cccc(Nc2nc(-c3cccnc3)nc3ccccc23)c1 | inconclusive [cytotoxic, single point] | 
CCOC(=O)c1ccc(NS(=O)(=O)c2ccc3c(c2)CCCN3C(C)=O)cc1 | inconclusive [cytotoxic, single point] | 
COc1cc(OC)c(OC)cc1/C=C1\CC(C)C/C(=C\c2cc(OC)c(OC)cc2OC)C1=O (stereo not given) | inconclusive [cytotoxic, single point] | 
Cc1cccc(-n2c(C)cc(/C=N/NC(=O)c3ccc(CN4CCOCC4)cc3)c2C)c1 | inconclusive [cytotoxic, single point] | 
COc1ccc([N+](=O)[O-])cc1NCc1ccccc1C | inconclusive [cytotoxic, single point] | 
O=C(Cn1cnc([N+](=O)[O-])n1)N/N=C/c1ccc(O)cc1O | active: 18.4 µM | 
CCOC(=O)c1ccc(NC(=O)Oc2cc(C)c(Cl)cc2C(C)C)cc1 | inconclusive [cytotoxic, partial curve] | 
Cc1ccc(C(O)c2ncc(-c3ccccc3Cl)[nH]2)c(C)c1 (stereo not given) | inconclusive [cytotoxic, single point] | 
CCc1ccc(NC(=O)CSc2nc3ccccc3c(=O)n2CCCN2CCC(C)CC2)cc1 | active: 20.6 µM | 
COc1ccc(NC(=O)C2(C)Cc3c(-c4ccc5c(c4)OCO5)ccnc3O2)cc1OC (stereo not given) | inconclusive [cytotoxic, single point] | 
Cc1cc(C)c2c(CN3CCN(C/C=C/c4ccccc4)CC3)cc(=O)oc2c1 | inconclusive [cytotoxic, single point] | 
CCOc1ccc(OCc2cccc(C(=O)O)c2)cc1 | active: 7.94 µM | 
O=C(CSc1nnc(C2CCCCC2)o1)Nc1ccccc1Cl |  | inactive: -10.3%

Structure (SMILES) | Potency | activity, negative = toxicity
COc1ccc(Cn2c(O)c(C=Nc3ccc(O)cc3)c3ccccc3c2=O)cc1 | inconclusive [cytotoxic, single point] | 
CCN1C(=O)C(CC(=O)Nc2ccc(F)cc2)N(CCCN2CCN(c3ccc(F)cc3)CC2)C1=S (stereo not given) | inconclusive [cytotoxic, single point] | 
O=C(Nc1ccn(CCCNC2CCN(Cc3ccccc3)CC2)c(=O)n1)OCc1ccccc1 | inconclusive [cytotoxic, single point] | 
COc1ccccc1-n1cnnc1SCC(=O)Nc1cc(C)on1 | inconclusive [cytotoxic, single point] | 
O=C(CSc1nnc(NC(=O)C2CCC2)s1)Nc1ccccc1Br | inconclusive [rising, full curve, poor fit] | 
N#Cc1cc(-c2ccccc2)nn1-c1ccccc1 |  | inactive: 6.72%
O=C(CSc1nc2ncccc2[nH]1)Nc1ccccc1-c1ccccc1 |  | inactive: -7.17%
COc1ccc(OC)c(NC(=O)COC(=O)c2c3c(nc4ccccc24)CCCC3)c1 | inconclusive [cytotoxic, single point] | 
CCOc1ccc(C(C(=O)NC2CCCCC2)N(C(=O)Cc2cccs2)c2ccc(-n3cnnn3)c(OC)c2)cc1 (stereo not given) | inconclusive [cytotoxic, partial curve] | 
CCOc1ccc(S(=O)(=O)NC(C)(C)C)cc1-c1nc2c(C(C)(C)C)nn(C)c2c(=O)[nH]1 | inconclusive [cytotoxic, single point] | 
Cc1ccc(S(=O)(=O)Cn2nnnc2C(C(C)C)N2CCN(c3nc4ccccc4s3)CC2)cc1 (stereo not given) |  | inactive: 2.24%
CCc1cc2c(N3CCN(C(=O)c4ccco4)CC3)ncnc2s1 |  | inactive: -3.03%
Cc1ccccc1NC(=O)N1CCc2ccccc2C1 |  | inconclusive: 35.7%
O=S(=O)(c1ccc(-c2csc(Nc3ccc(F)cc3)n2)cc1)N1CCCC1 | inconclusive [cytotoxic, single point] | 
Cc1cccc(C2=NN(c3ccccc3)[C@H](CO)[C@H]2c2ccc(Cl)cc2)c1 | inconclusive [cytotoxic, single point] | 
COc1ccccc1NC(=O)CCCN1C(=O)C(c2ccccc2)Oc2cccnc21 (stereo not given) |  | inactive: 2.05%
CC(C)(C)c1nc2ccccc2c2nnc(SCC(=O)Nc3nccs3)n12 | inconclusive [cytotoxic, full curve] | 
COc1cc(CC(=O)OCC(=O)NC2CCCCC2)cc(OC)c1OC |  | inactive: 16.2%
COc1ccccc1NC(=O)/C(C#N)=C/C=C/c1ccco1 | active: 1.41 µM | 
Cc1ccc(NC(=O)c2ccc(OC(=O)COc3cccc(Cl)c3)cc2)cc1 |  | inactive: 6.03%
Cc1ccc(NC(=S)NC(NC(=O)c2ccccc2)C(Cl)(Cl)Cl)c(C)c1 (stereo not given) | inconclusive [cytotoxic, single point] | 
CCCCCCSc1ccc([C@@H]2[C@@H]3C(=O)N(CC)C(=O)[C@@H]3[C@]3(C(=O)OC)CCCCN23)cc1OC | inconclusive [cytotoxic, single point] | 
